Read counts are not given, so values of variants with three or more changes are uncertain.

The labels stand for the following.
B1: LINE1-mini (parent)
chain: GGCAGAGCUCAACACAGCGUGGCAAAGUGGCUGUGGCUAGACUGCC

In the data set the parent is B1. The data set is described as follows: self-cleavage, relative activity (ratio to wild type); higher = more cleavage; in vitro, sequencing; the parent is a self-cleaving ribozyme.
Turning to G2A U32A U43C, the self-cleavage was 0.28.
On to G2C A14U G33C G40A C45A, for which the self-cleavage was determined as 0.
Consider G2C A6C C8A G17A, for which the self-cleavage was determined as 0.16.
In the case of G2C A14U G21U C46A it was 0.09.
Regarding G2A G33C U34A C37U, the self-cleavage came to 0.11.
For G2A C31U C45A, the self-cleavage was determined as 0.11.
Then G2C A16C C31U U34G C46U, with 0.07; and G2A C31U C37U, with 0.14.
Consider G2A G17C G44A C46A, for which the self-cleavage came out at 0.02.
In the case of G2A U32C C45U C46A it was 0.48.
In the case of G2C A12G C13U G30A C31A it was 0.11; in that of G2C A12U G17C C31G C37G, 0.01.
Consider G2C A6G A12U C23U G36C, for which the self-cleavage turned out to be 0.05.
In the case of G2A U9C C18G G22U C31U G36C it was 0.01; in that of G2A U20G U28G C31A C45U, 0.06; in that of G2C A4G A25C, 0.07.
Then G2A G7C A11G G21A A41G, with 0.02; and G2A G29A G36C, with 0.13.
In the case of G2A G22A U28A G40U C42G it was 0.07; in that of G2A U28G U43A, 0.22; in that of G2C A16G G27A, 0.04.
Regarding G2A G17A C18U G21C C45A, the self-cleavage was determined as 0.05.
As for G2A G17A U20G G27A U34G G40U, the self-cleavage came to 0.03.
Then G2C A4U A6U A11G C46A, with 0.05; and G2A G7U G17A U34G G35A C46G, with 0.06.
Then G2A G21A A41U, with 1.63; and G2C A16C C23U, with 0.01; and G2A G27A G33U, with 0.18.
As for G2A G30U G44A, the self-cleavage stood at 1.15.
In the case of G2C A4U A11G C15A G40C C46U it was 0.01; in that of G2A G7A C8G G22U, 0.35; in that of G2A G19C U34A, 0.45.
In the case of G2C A16C C18A G29U C31A C37G C42U, the self-cleavage was 0.02.
As for G2C A12U A26U, the self-cleavage turned out to be 0.04.
Regarding G2C A12U A26G, the self-cleavage is 0.03.
In the case of G2A G19C G40U C46A it was 0.07; in that of G2C A11U C13A C23G, 0.01; in that of G2A G17U U20G G33U, 0.06.
On to G2A G35A U38C, for which the self-cleavage was 0.36.
For G2A U9C G27U G30A, the self-cleavage turned out to be 0.11.
Turning to G2A G5C G7U U32A, the self-cleavage was 0.17.
In the case of G2C A16U C46A it was 0.11.
On to G2A G5U G7C U28A G35C A41C, for which the self-cleavage came to 0.02.
In the case of G2A G17C G21C C23U A26C it was 0.69.
In the case of G2A G19C A26G it was 0.46.
As to G2A U28A U43G, the self-cleavage worked out at 0.09.
Then G2A G19U G29A G30C U32G, with 0.06.
Then G2C A6U C18G A24C A39G, with 0.01; and G2C A11U C23A U28G, with 0.02; and G2C A4G C10A G17A A25G, with 0.01.
As for G2A G5U C10U A16U G21C G30U, the self-cleavage was 0.07.
In the case of G2A G5C C37A it was 0.03.
In the case of G2A G19C U38G, the self-cleavage worked out at 0.27.
Then G2A G30A G33A G36U, with 0.25; and G2C A12C A39U, with 0.01; and G2A U28C G30U G35C U43A, with 0.02.
In the case of G2A G19A G27U G33U it was 0.06; in that of G2A U9C C10A A39C, 0.06.
As for G2A U9G G33U U34G, the self-cleavage came out at 0.1.
In the case of G2A G17A C45A it was 0.15; in that of G2C A6U C8A U9C G40A, 0.07.
Then G2A U9G U20A G33A, with 0.08; and G2C A4C A25G, with 0.07; and G2C A6U G7A A16C G21C C42U C45U, with 0.54.
On to G2C A16G G35U, for which the self-cleavage worked out at 0.01.
G2A G7C G27U G29U: the self-cleavage is 0.54.
In the case of G2C A4C C18G G21A C42G it was 0.01.
On to G2A G5U G17C C18G A25C, for which the self-cleavage amounted to 0.08.
Then G2A G19U C45G C46U, with 0.51.
In the case of G2A G5A A6C G21C A39C C42U U43G it was 0.13; in that of G2A G5U U9G G29U, 0.15.
As for G2A U9C C10U G19A, the self-cleavage worked out at 0.03.
As for G2A G5A C23A G35C, the self-cleavage was found to be 0.44.
Then G2A G19A C37U U38A, with 0.05.
Take G2A G22U G40C C42U: the self-cleavage turned out to be 0.03.
In the case of G2A G7A C10U it was 0.11.
Then G2C A6G C10U G27C C46A, with 0.02.
Then G2A C31A G40U, with 0.04; and G2A U9A C23G A26G G35U C37U G40A, with 0.08; and G2A G29A G40C, with 0.14.
Consider G2A G27A C31U G40U, for which the self-cleavage is 0.03.
As to G2A U20G G21C C23G A26C, the self-cleavage was found to be 0.44.
Then G2A G19C G40A, with 0.02.
Then G2C A6G C15U G35C, with 0.09; and G2A G5U A11U G17C G21A U28G G29A, with 0.02.
In the case of G2A G5A C13G A25G, the self-cleavage stood at 0.4.
With G2C A14C U28A, the self-cleavage was 0.12.
As for G2C A4G C37U U38C G44U, the self-cleavage was determined as 0.04.
In the case of G2A G7C C15U G22C it was 0.41; in that of G2C A24C C31G, 0.02.
Consider G2A G5U C10G G19U C42U, for which the self-cleavage is 0.03.
For the variant G2A G22U C46U, the self-cleavage was found to be 0.37.
Consider G2A G27U G29U U32G, for which the self-cleavage came out at 0.17.
Then G2A U20C C31U G33C G35U, with 0.18; and G2A G5U A6U C15A G17A U43A C46G, with 0.14.
Then G2A G5A G19U A24G G40U, with 0.23; and G2A G5C A16G U20C A41U C42A, with 0.05.
In the case of G2A G5A C10A G29A U38G it was 0.05.
For G2C A4C G21C, the self-cleavage worked out at 0.1.
In the case of G2C A6C A24C C45A it was 0.02; in that of G2A G19C A41G, 0.06.
Then G2A U9G C13G, with 0.9; and G2A G29C U34A C37A, with 0.08.
As for G2A G19U G22C C31U U38C C46A, the self-cleavage turned out to be 0.02.
On to G2C A11C G29U, for which the self-cleavage amounted to 0.02.
Then G2C A6U U9C C13A, with 0.09; and G2A U32C U38A, with 0.09.
As for G2C A4C G5U, the self-cleavage came to 0.03.
As for G2A G19U G30U C31G U43A, the self-cleavage is 0.05.
Turning to G2C A6U G44C, the self-cleavage turned out to be 0.66.
Then G2C A4C G27U A39U, with 0.02; and G2A G5A C18A, with 0.19; and G2A U20G G29A G35A, with 0.41.
In the case of G2A U38A U43C it was 0.34; in that of G2C A6U C10A G22U A39G G44C, 0.01; in that of G2A U9G U43A, 0.27.
With G2A G7A U20C A41U, the self-cleavage was 0.2.
Then G2C A14G G19C A26U, with 0.03; and G2A G21C U34A, with 0.22.
For G2C A6C C10A C37U U38G, the self-cleavage was 0.
In the case of G2C A14C U20C it was 0.01; in that of G2C A4G A12U C18A G27U G29U U34G, 0.
Then G2C A16G G21C G22U, with 0.03; and G2C A4C C10U C45U, with 0.04; and G2C A6C C31A A41G, with 0.03.
For G2A G7A U43C, the self-cleavage came to 0.37.
In the case of G2A G7A U20A A26U, the self-cleavage was found to be 0.23.
Then G2C A16C G17A, with 0.03; and G2A U9G C42A, with 0.17; and G2C A6C U20A G40U C45A, with 0.01.
Then G2A G5U G29A, with 0.18; and G2A G35A U43A, with 0.08.
In the case of G2C A16U C23A U28A C46U it was 0.01; in that of G2C A12G C42A, 0.2; in that of G2C A4U G7C, 0.05.
In the case of G2C A4G G5A U9G G36U, the self-cleavage was determined as 0.07.
In the case of G2C A14G C46U it was 0.02; in that of G2A G5U C8A C10A A41C, 0.08.
Then G2A G19A G22A, with 0.22.
In the case of G2A G7C A11G G19C G22U C23G it was 0.02; in that of G2C A4G G30U G35U C45G, 0.1.
As to G2C A4G C10A C37G U38C, the self-cleavage amounted to 0.01.
Then G2C A16U A26G G30U U38C, with 0.1.
As for G2C A4U A11U C31G, the self-cleavage turned out to be 0.02.
Then G2C A14G A16U U20G G27C, with 0.01; and G2A U9C G35U A41U, with 0.04.
On to G2A U9C G22C G29U G35U C37A A39G A41U, for which the self-cleavage turned out to be 0.01.
Then G2C A4C A6U A16U G19A G27A, with 0.28; and G2A G7C C46U, with 0.34.
As to G2C A6G A25G G27U, the self-cleavage worked out at 0.01.
In the case of G2A U9A C15U G27U G33U it was 0.17; in that of G2C A4U C8A C31G, 0.2; in that of G2C A6G A12G U38A A39G, 0.03.
Then G2C A16G C23A, with 0.1; and G2A G29C C37G, with 0.02; and G2A U28A G30C G44U, with 0.32.
Then G2A G21U C45A, with 1.76; and G2A G17U G44A, with 0.31.
Consider G2C A16U G22C, for which the self-cleavage is 0.02.
As for G2A C37U G44C, the self-cleavage turned out to be 0.06.
For the variant G2A G17C U28G U34A A41U, the self-cleavage was 0.02.
In the case of G2A U9A A16U C23A G36U C46G it was 0.19.
Take G2A U34A U43G: the self-cleavage was found to be 0.03.
In the case of G2A G22A G27C G29A U43A it was 0.12; in that of G2C A12G A26C U32C G44A, 0.1; in that of G2C A11C G30U G36U, 0.02.
Regarding G2C A4G A11G, the self-cleavage came out at 0.01.

For the origin of these results see the RNAGym collection of RNA variant scans (doi:10.7554/elife.90254).
